Drawing on the supplement of paper PMC6660600, “Odorant Inhibition in Mosquito Olfaction” (iScience, 2019), this text covers current response class for 15 compounds.

Molecules are shown by their SMILES. The list shows a part of the results. Repeats are few or missing, and single values can be far off.

For this test, the system named is CquiOR32-CquiOrco. The experiment in a line: current response class (signed ordinal: positive = inward/excitatory, negative = outward/inhibitory) (ordinal score (-3..3)); higher = stronger inward (excitatory) current. The following applies: 1 mM; holding potential (mV): -80.
Regarding `CC(=O)CCC(C)C` [5-methyl-2-hexanone], the current response class is inactive: 0.

Turning to `C=CC(O)CCCCC` (stereo not given) [1-octen-3-ol], the current response class was inactive: 0.

As for `OCCc1ccccc1` [2-phenylethanol], the current response class is active: 1.

For `Cc1c[nH]c2ccccc12` [skatole], the current response class is inactive: 0.

Regarding `CC(C)=CCC/C(C)=C/CO` [geraniol], the current response class is active: -1.

As to `CC(=O)CC(C)=O` [2,4-pentanedione], the current response class was active: 1.

As to `CCOC(=O)CC` [ethyl propionate], the current response class is inactive: 0.

With `CCCCCC(=O)OC` [methyl hexanoate], the current response class is inactive: 0.

Consider `CCCCCCCCCCOC(C)=O` [decyl acetate], for which the current response class is inactive: 0.

For the compound `CC(=O)OCCC(C)CCC=C(C)C` (stereo not given) [citronellyl acetate], the current response class was inactive: 0.

For the compound `Cc1cccc(C(N)=O)c1` [3-methylbenzamide], the current response class is active: 2.

For the compound `CCOC(=O)CCCCCCCCC(=O)OCC` [diethyl sebacate], the current response class was inactive: 0.

Regarding `CCCCCCCCCOC(C)=O` [nonyl acetate], the current response class is inactive: 0.

Consider `CCCC(C)=O` [2-pentanone], for which the current response class is active: 1.

As to `CC(=O)CCC=C(C)C` [6-methyl-5-hepten-2-one], the current response class is inactive: 0.
